Patent US20250297021A1 (SHANDONG SIMCERE BIOPHARMACEUTICAL CO NO 1, published 2025)

T1: human BCMA on cells (human, UniProt Q02223 1-184)
T1 construct: whole, on cells; also called H929 cells; U266 cells
T1 sequence (looked up): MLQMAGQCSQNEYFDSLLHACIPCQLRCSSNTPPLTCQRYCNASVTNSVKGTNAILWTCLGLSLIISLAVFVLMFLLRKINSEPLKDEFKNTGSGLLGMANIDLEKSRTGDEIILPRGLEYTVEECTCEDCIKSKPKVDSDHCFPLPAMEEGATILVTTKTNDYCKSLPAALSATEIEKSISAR

B1: BCMA-mAb01 (Fc fusion)
scFv: EVKLVESGGGLVQPGGSLKLSCAASGFTFSDFYMYWVRQTPEKRLEWVAYITNGGENTYFPDTVKGRFTISRDNAKNTLYLQMSRLKSEDTAMYYCARQNPFYYYDSNYDYAMDFWGQGTSVTVSSGGGGSGGGGSGGGGSDVVMTQTPLTLSVTIGQPASISCKSSQSLLYSNGKTYLSWLFQRPGQSPKRLIYLVSELDSGVPDRFTGSGSGTDFTLKISRVEAEDLGIYYCVQGTHFPHTFGGGTKLEIK[human IgG1 Fc with C220S (EU numbers) not spelt out]
B2: BCMA-mAb02 (Fc fusion)
scFv: EVQLVESGGDLVQPGESLKLSCESNAYEFPSYDMSWVRKTPEKRLELVAAINSDGGITYYPDTMERRFIISRDNTKKTLYLQMSSLRSEDTALYYCARHGYGGGAYVLDYWGQGTSVTVSSGGGGSGGGGSGGGGSDIVMTQSQKFMSTTVGDRVRITCKASQNVGTAVAWYQQKPGQSPKVLIYSASSRYTGVPDRFTGSGSGTDFTLTINNMQSEDLADYFCQQYSNYHLTFGTGTKLELK[human IgG1 Fc with C220S (EU numbers) not spelt out]
B3: BCMA-mAb03 (Fc fusion)
scFv: QIPLVQSGPELKKPGETVKISCKASGYTFTNYAMTWVKQAPGKGLKWMGWIDTYSGVPTYADDFKGRFAFSLETSATTAYLQINNLKNEDTATYFCARVGVYGGYDTLDSWGQGTSVTVSSGGGGSGGGGSGGGGSDIQMTQTTSSLSASLGDRVTISCSASQGISNHLNWYQQKPDGTVKLLIYYTSSLHSGVPSRFSGSGSGTDYSLTISNLEPEDFATYYCQQYNNLPWTFGGGTKLEIK[human IgG1 Fc with C220S (EU numbers) not spelt out]
B4: BCMA-mAb04 (Fc fusion)
scFv: QVQLQQSGAELARPGASVDLSCKASGYSFTSYGISWVKLRTGQGLEWIGEIYPRDDITYYNEKFKGKTTLTADKSSSTAYMELRSLTSEDSAVYFCARHDYYYVNSVSAMDYWGQGTSVTVSSGGGGSGGGGSGGGGSDIVMSQSPSSLAVSVGEKVTMSCKSSQSLLYSSNQKNYLAWYQQKPGQSPKLLIYWASTRYSGVPDRFTGSGSGTDFTLTVSSVRAEDLALYYCQQYYIYPWTFGGGTKLEIK[human IgG1 Fc with C220S (EU numbers) not spelt out]
B5: BCMA-mAb05 (Fc fusion)
scFv: QGQMQQSDAELVKPGASVQISCKASGYMFTDHTFHWMRQRPEQGLEWIGYIYPRDDNTKYNEKFKGKATLTADKSSSTAYIHLNSLTSEDSAVYFCARAGYYGSSHAMDYWGQGTSVTVSSGGGGSGGGGSGGGGSDIVMTQSHKFMSTSVGDRVSITCKASQDVSTAVAWYQQKPGQSPRLLIYSASSRYTGVPDRFTGSGSGTDFTFTISSVQTEDLAVYYCQQLYSTPWTFGGGTKLEIK[human IgG1 Fc with C220S (EU numbers) not spelt out]
B6: BCMA-mAb06 (Fc fusion)
scFv: EVKLLQSGGGLVQPGGSLKLSCAASGIDFSRYWMSWVRRAPGKGLEWIGEINPDSSTINYAPSLKDEFIISRDNAKNTLYLQMSKVRSEDTALYYCAIFYYANYYAMDYWGQGTSVTVSSGGGGSGGGGSGGGGSDIVMTQSQKFMSTSVGDRVSVTCKASQNVDTNVAWYQQKPGQSPKALIYSASYRFSGVPDRFTGSGSGTDFTLTISNVQSEDLAEYFCQQYNGYPFTFASGTKLEIK[human IgG1 Fc with C220S (EU numbers) not spelt out]
B7: BCMA-mAb07 (Fc fusion)
scFv: QVQLQQSGAELAKPGASVKLSCKASGYTFTDYWTHWVKQRPGQGLEWIGYINHGSGYTKYNQKFKDKATLTADKSSSTAYMQVSSLTYEDSAVYYCARLTGSYYFDYWGQGTTLTVSSGGGGSGGGGSGGGGSQIVLTQSPAIMSASPGEKVTMTCSASSSVSYMHWYQQKSGTSPKRWIYDTSKLASGVPPRFSGSGSGTSYSLTISSMEAEDAATYYCQQWSSNPLTFGAGTKLELK[human IgG1 Fc with C220S (EU numbers) not spelt out]

These binders were tested against T1, human BCMA on cells (assay: cell ELISA, Flp-inCHO-human BCMA cells; Ab 3.70 nM).
Excerpt: (§1) The specific method was as follows: The required cells were scale-up cultured in a T-75 cell culture flask to the logarithmic growth phase, the medium was aspirated, the cells were washed twice with a PBS buffer, and then digested with trypsin. Then the digestion was terminated with a complete medium, and the cells were pipetted to obtain a single cell suspension. After the cells were counted and centrifuged, the cell precipitate was resuspended to 4×10⁵ cells per milliliter with a complete medium, and the suspension was added to a 96-well flat-bottomed cell culture plate at 100 μl/well, and cultured overnight in a 37° C., 5% carbon dioxide incubator. On the next day, the medium in the 96-well plate was discarded, the cells were washed once with PBS, and then fixed at room temperature for 0.5 h with an immunostaining fixative (purchased from Beyotime, catalog number: P0098-500 ml) at 50 μl/well. A blocking solution [PBS+5% (w/v) skim milk] was added for blocking at room temperature for 2 h. The blocking solution was discarded, the plate was washed 3 times with PBS, and 100 nM BCMA human-mouse chimeric antibody diluted gradiently or control antibody was added at 50 μl/well. After incubation at 37° C. for 2 h, the plate was washed 3 times with PBS. HRP (horseradish peroxidase)-labeled secondary antibody (purchased from Merck, catalog number: AP113P) was added, and incubated at 37° C. for 1 h, and the plate was washed 5 times with PBS. TMB substrate was added at 50 μl/well, and incubated at room temperature for 10 min, then a stop solution (1.0 M HCl) was added at 50 μl/well. The OD450 nm values were read by an ELISA microplate reader (Multimode Plate Reader, EnSight, purchased from Perkin Elmer). The chimeric antibodies bind well to Flp-inCHO-human BCMA cells. The IgG subtype control is human IgG1.

Row | Binder | OD450
1 | B1 | 0.86
2 | B2 | 0.91
3 | B3 | 0.73
4 | B4 | 0.81
5 | B5 | 1.01
6 | B6 | 0.96
7 | B7 | 0.73

The binders below were run against T1, human BCMA on cells (assay: FACS, RPMI8226 cells).
Protocol: (§2) The desired cells were scale-up cultured in T-75 cell culture flasks to the logarithmic growth phase, and the cells were pipetted into a single cell suspension. After the cells were counted, the cells were centrifuged and the cell pellet was resuspended in FACS buffer (PBS+2% fetal calf serum) to 2×10⁶ cells per ml, and the suspension was added to the 96-well FACS reaction plate at 50 μl per well, then the sample to be tested of the chimeric antibody was added at 50 μl per well and the mixture was incubated at 4° C. for 1 h. The obtained mixture was centrifuged and washed 3 times with a PBS buffer. […] The obtained mixture was centrifuged and washed 3 times with a PBS buffer. 100 μl of the mixture was taken for detection and result analysis by FACS (FACS Canto™, purchased from BD Company). Data analysis was performed by software (FlowJo) to obtain the mean fluorescence intensity (MFI) of the cells. Then, a software (GraphPad Prism8) was used for analysis, data fitting and EC50 calculation. The results are shown in Table 10 and FIGS. 10A-10B, FIGS. 11A-11B, and FIGS. 12A-12B. All seven chimeric antibodies bind to three types of BCMA-expressing endogenous cells.

Row | Binder | EC50 [nM] | Maximum mean fluorescence intensity
8 | B1 | 3.3 | 1580
9 | B2 | 4.63 | 1430
10 | B3 | 11.3 | 1490
11 | B4 | 26 | 1290
12 | B5 | 12.1 | 2230
13 | B6 | 2.28 | 2860
14 | B7 | 6.38 | 2220

These binders were tested against T1, human BCMA on cells (assay: cell ELISA, Flp-inCHO-human BCMA cells; Ab 0.002 nM).
Excerpt: as §1

Row | Binder | OD450
15 | B1 | 0.09
16 | B2 | 0.08
17 | B3 | 0.08
18 | B4 | 0.07
19 | B5 | 0.09
20 | B6 | 0.09
21 | B7 | 0.1

What follows are binders tested against T1, human BCMA on cells (assay: FACS, H929 cells).
Protocol: as §2

Row | Binder | EC50 [nM] | Maximum mean fluorescence intensity
22 | B1 | 9.02 | 8390
23 | B2 | 16.5 | 8770
24 | B3 | 104 | 7790
25 | B4 | 167 | 7070
26 | B5 | 12.4 | 11000
27 | B6 | 3.39 | 11700
28 | B7 | 7.45 | 12200

The binders below were run against T1, human BCMA on cells (assay: cell ELISA, Flp-inCHO-human BCMA cells; Ab 0.14 nM).
Excerpt: as §1

Row | Binder | OD450
29 | B1 | 0.4
30 | B2 | 0.36
31 | B3 | 0.28
32 | B4 | 0.32
33 | B5 | 0.43
34 | B6 | 0.44
35 | B7 | 0.31

What follows are binders tested against T2, monkey BCMA-His protein (monkey, UniProt A0A2K5UD97 1-53) (assay: ELISA, monkey BCMA-His coated; Ab 0.1 nM).
T2 construct: bought; monkey species not further stated for this product; also called monkey BCMA protein
Protocol: The specific method was as follows: Human BCMA protein (purchased from Acro, catalog number: BCA-H522y) and monkey BCMA protein (purchased from Acro, catalog number: BCA-C52H7) were diluted with PBS to a final concentration of 1 μg/mL, respectively, and then added to a 96-well ELISA plate at 50 μl/well. The plate was sealed with a plastic film and incubated overnight at 4° C., the plate was washed twice with PBS the next day, and then a blocking solution [PBS+2% (w/v) BSA] was added for blocking at room temperature for 2 h. The blocking solution was discarded, the plate was washed 3 times with PBS, and 100 nM BCMA human-mouse chimeric antibody diluted gradiently or control antibody was added at 50 μl/well. After incubation at 37° C. for 2 h, the plate was washed 3 times with PBS. HRP (horseradish peroxidase)-labeled secondary antibody (purchased from Merck, catalog number: AP113P) was added, and incubated at 37° C. for 1 h, and the plate was washed 5 times with PBS. TMB substrate was added at 50 μl/well, and incubated at room temperature for 10 min, then a stop solution (1.0 M HCl) was added at 50 μl/well. The OD450 nm values were read by an ELISA microplate reader (Multimode Plate Reader, EnSight, purchased from Perkin Elmer). The results are shown in Table 7, Table 8 and FIGS. 7A-7B and FIG. 8A-8B. All chimeric antibodies have good binding activity with human BCMA protein; except that BCMA-mAb06 has no cross-binding activity with monkey BCMA protein and BCMA-mAb07 has weak binding to monkey BCMA protein, other chimeric antibodies have good binding activity with monkey BCMA protein. The IgG subtype control is human IgG1.

T2 sequence (A0A2K5UD97 entry or part of it limits assumed): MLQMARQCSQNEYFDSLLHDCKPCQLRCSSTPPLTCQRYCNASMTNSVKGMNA

Row | Binder | OD450
36 | B1 | 0.82
37 | B2 | 0.28
38 | B3 | 0.55
39 | B4 | 0.68
40 | B5 | 0.43
41 | B6 | 0.1
